Experimental findings from PMC3524126 are described below.

The chains behind the UniProt entries cited, without tags or fusion partners. Where a name states a change or a piece, a line headed by the entry shows the natural chain unless it says otherwise. Residues count along the entry.
UniProt P40238, residues 26-635: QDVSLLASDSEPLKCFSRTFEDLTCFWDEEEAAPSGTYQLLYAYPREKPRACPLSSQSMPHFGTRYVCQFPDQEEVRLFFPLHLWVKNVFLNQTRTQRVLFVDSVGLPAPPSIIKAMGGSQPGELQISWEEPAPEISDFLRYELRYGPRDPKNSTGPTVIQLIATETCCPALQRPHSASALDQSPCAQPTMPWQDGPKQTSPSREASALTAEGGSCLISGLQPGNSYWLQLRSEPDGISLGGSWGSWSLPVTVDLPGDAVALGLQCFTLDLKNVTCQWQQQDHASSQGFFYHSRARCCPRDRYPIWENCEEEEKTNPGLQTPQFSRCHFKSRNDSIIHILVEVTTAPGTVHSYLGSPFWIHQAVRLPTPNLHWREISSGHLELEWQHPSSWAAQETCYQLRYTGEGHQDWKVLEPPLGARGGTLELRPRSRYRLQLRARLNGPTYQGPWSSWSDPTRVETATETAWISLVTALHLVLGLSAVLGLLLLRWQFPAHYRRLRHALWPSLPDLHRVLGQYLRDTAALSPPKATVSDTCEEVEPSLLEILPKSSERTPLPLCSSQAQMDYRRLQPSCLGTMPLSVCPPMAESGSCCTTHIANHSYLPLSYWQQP
UniProt Q9Y266: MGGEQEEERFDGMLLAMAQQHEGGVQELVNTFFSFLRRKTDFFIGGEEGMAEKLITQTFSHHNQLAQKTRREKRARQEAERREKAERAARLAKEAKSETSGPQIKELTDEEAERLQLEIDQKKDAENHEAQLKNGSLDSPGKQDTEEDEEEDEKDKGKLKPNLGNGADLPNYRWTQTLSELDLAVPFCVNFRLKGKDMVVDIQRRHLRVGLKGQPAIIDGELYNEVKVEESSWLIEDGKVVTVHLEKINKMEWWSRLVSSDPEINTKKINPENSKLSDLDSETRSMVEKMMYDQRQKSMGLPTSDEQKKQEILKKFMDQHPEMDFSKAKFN

The target in experiment [1] is Flag-Mpl-VN (full-length thrombopoietin receptor Mpl fused to the N-terminal half of Venus) (UniProt P40238). Kind of experiment: split reporter; Venus BiFC read by confocal microscopy in living Cos-1 cells; 250 ng DNA of each construct, 12 h after transfection at 37°C.
The target of experiment [2] is Mpl-YFP (thrombopoietin receptor Mpl fused upstream of yellow fluorescent protein) (UniProt P40238). Kind of experiment: FRET or BRET; acceptor photobleaching FRET, CFP donor and YFP acceptor, Cos-1 cells fixed 24 h after transfection.
Experiment [3] has as its target Flag-Mpl-VN (full-length thrombopoietin receptor Mpl fused to the N-terminal half of Venus) (UniProt P40238). In words: split reporter; Venus BiFC read by flow cytometry of Cos-1 cells, 12 h after transfection; 1x10^4 cells, Venus-positive cells against untransfected and empty-vector cells.

Results are given in words; binding and its absence hold for the method and conditions named. Binding seen in cells or lysates may run through a third protein. Some entries that bind do so weakly or less than the wild type.

Consider “HA-hNUDC-VC (full-length human NUDC fused to the C-terminal half of Venus) (from UniProt Q9Y266 1-331)”, for which the binding result in experiment [1] is given as “binds”.

As for “HA-hNUDC(1-159)-VC (N-terminal half of hNUDC fused to the C-terminal half of Venus) (from UniProt Q9Y266 1-159) (domain or fragment)”, the binding result in experiment [1] is “binds”.

For “hNUDC(160-331)-CFP (from UniProt Q9Y266 160-331) (domain or fragment)”, the binding result in experiment [2] is listed as “no binding”.

For the substance “HA-hNUDC(160-331)-VC (C-terminal half of hNUDC fused to the C-terminal half of Venus) (from UniProt Q9Y266 160-331) (domain or fragment)”, the binding result in experiment [1] and in experiment [3] was “no binding” in each case.
